Results taken from the supplement of paper PMC10369915.
This is one part of the list. No stated cut-off is given here; in the data, active = 3.2 or more and inactive = the rest. Only a few entries rise above the background.

Tests used:
Assay in all cases: enrichment score (SH2-bound / input frequency) (ratio); bacterial display of known human phosphotyrosine sites (pTyr-Var adds point mutants) read by sequencing; higher = stronger binding; tyrosines were phosphorylated by kinases first
Settings in all cases: peptide library: pTyr-Var
SHP2 C-SH2 domain E139D = target: SHP2 C-SH2 domain E139D
[1] = target: SHP2 C-SH2 domain wild-type
SHP2 N-SH2 domain L43F = target: SHP2 N-SH2 domain L43F
SHP2 N-SH2 domain T42A = target: SHP2 N-SH2 domain T42A
SHP2 N-SH2 domain T52S = target: SHP2 N-SH2 domain T52S
[2] = target: SHP2 N-SH2 domain wild-type

Measured: enrichment score
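Further: displayed peptides selected on beads carrying the immobilized SH2 domain, with library peptides lacking any tyrosine serving as negative controls.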

SSQTVYQRVEG [TFR2_Y23]
inactive: SHP2 C-SH2 domain E139D 0.56 | [1] 1.1 | SHP2 N-SH2 domain L43F 0.69 | SHP2 N-SH2 domain T42A 0.699 | SHP2 N-SH2 domain T52S 0.528 | [2] 0.739

TNEFEYDELIV [TGM1_Y136_D132N_YF]
inactive: SHP2 C-SH2 domain E139D 0.434 | [1] 0.912 | SHP2 N-SH2 domain L43F 0.634 | SHP2 N-SH2 domain T42A 0.646 | SHP2 N-SH2 domain T52S 0.531 | [2] 0.963

DLRTGYSVPYG [TGM1_Y370_Y365D]
inactive: SHP2 C-SH2 domain E139D 0.939 | [1] 1.03 | SHP2 N-SH2 domain L43F 0.874 | SHP2 N-SH2 domain T42A 0.913 | SHP2 N-SH2 domain T52S 0.711 | [2] 0.912

TNEYEYDELIV [TGM1_Y136_D132N]
inactive: SHP2 C-SH2 domain E139D 0.622 | [1] 0.478 | SHP2 N-SH2 domain L43F 0.663 | SHP2 N-SH2 domain T42A 0.464 | SHP2 N-SH2 domain T52S 0.459 | [2] 0.532

TFQFKYPEGSS [TGM4_Y440_E437Q_YF]
inactive: SHP2 C-SH2 domain E139D 0.967 | [1] 0.696 | SHP2 N-SH2 domain L43F 1.13 | SHP2 N-SH2 domain T42A 1.1 | SHP2 N-SH2 domain T52S 0.735 | [2] 0.8

PEVSGYCHFAD [TG_Y234_C237Y_YF]
inactive: SHP2 C-SH2 domain E139D 1.23 | [1] 1.48 | SHP2 N-SH2 domain L43F 1.08 | SHP2 N-SH2 domain T42A 0.894 | SHP2 N-SH2 domain T52S 1.12 | [2] 1.69

SSQVLYKLEQS [THADA_Y701]
inactive: SHP2 C-SH2 domain E139D 1.31 | [1] 0.823 | SHP2 N-SH2 domain L43F 0.877 | SHP2 N-SH2 domain T42A 0.756 | SHP2 N-SH2 domain T52S 0.796 | [2] 1.04

DWQQEYVLNES [TGM1_Y267_R264Q]
inactive: SHP2 C-SH2 domain E139D 0.89 | [1] 0.806 | SHP2 N-SH2 domain L43F 0.714 | SHP2 N-SH2 domain T42A 0.686 | SHP2 N-SH2 domain T52S 0.888 | [2] 1.05

DWWQEYVLNES [TGM1_Y267_R264W]
inactive: SHP2 C-SH2 domain E139D 1.98 | [1] 2.32 | SHP2 N-SH2 domain L43F 1.99 | SHP2 N-SH2 domain T42A 2.56 | SHP2 N-SH2 domain T52S 2.13 | [2] 2.02

YLRTGYSVPYG [TGM1_Y370]
inactive: SHP2 C-SH2 domain E139D 0.933 | [1] 1.43 | SHP2 N-SH2 domain L43F 0.976 | SHP2 N-SH2 domain T42A 1.42 | SHP2 N-SH2 domain T52S 1.04 | [2] 0.913

GCKNRYDKDKP [THAP1_Y14]
inactive: SHP2 C-SH2 domain E139D 1.41 | [1] 1.16 | SHP2 N-SH2 domain L43F 1.27 | SHP2 N-SH2 domain T42A 1.1 | SHP2 N-SH2 domain T52S 1.94 | [2] 0.941

VDYQPYRKHKY [TEX37_Y28]
inactive: SHP2 C-SH2 domain E139D 1.21 | [1] 0.835 | SHP2 N-SH2 domain L43F 1.18 | SHP2 N-SH2 domain T42A 1.17 | SHP2 N-SH2 domain T52S 1.09 | [2] 1.07

EILLSDLRTGY [TGM1_Y365_Y365D]
inactive: SHP2 C-SH2 domain E139D 0.945 | [1] 0.789 | SHP2 N-SH2 domain L43F 0.821 | SHP2 N-SH2 domain T42A 0.826 | SHP2 N-SH2 domain T52S 0.865 | [2] 1.02

EILLSYLRTGF [TGM1_Y365_YF]
inactive: SHP2 C-SH2 domain E139D 1.32 | [1] 1.1 | SHP2 N-SH2 domain L43F 1.04 | SHP2 N-SH2 domain T42A 1.1 | SHP2 N-SH2 domain T52S 1.24 | [2] 1.47

NTFEKYLEEEF [TF_Y669_G671E_YF]
inactive: SHP2 C-SH2 domain E139D 1.04 | [1] 0.916 | SHP2 N-SH2 domain L43F 1.03 | SHP2 N-SH2 domain T42A 0.861 | SHP2 N-SH2 domain T52S 0.969 | [2] 1.06

TFEFKYPEGSS [TGM4_Y440_YF]
inactive: SHP2 C-SH2 domain E139D 0.982 | [1] 0.729 | SHP2 N-SH2 domain L43F 0.786 | SHP2 N-SH2 domain T42A 0.672 | SHP2 N-SH2 domain T52S 0.955 | [2] 0.797

NTFEKYLGEEF [TF_Y669_YF]
inactive: SHP2 C-SH2 domain E139D 1.3 | [1] 1.21 | SHP2 N-SH2 domain L43F 1.01 | SHP2 N-SH2 domain T42A 1.33 | SHP2 N-SH2 domain T52S 1.1 | [2] 1.16

LQRCKNSHMEP [TEX45_Y434_Y434N]
inactive: SHP2 C-SH2 domain E139D 1.08 | [1] 2.36 | SHP2 N-SH2 domain L43F 1.41 | SHP2 N-SH2 domain T42A 1.03 | SHP2 N-SH2 domain T52S 1.05 | [2] 1.47

NREGVYTVFAP [TGFBI_Y537]
inactive: SHP2 C-SH2 domain E139D 0.788 | [1] 0.884 | SHP2 N-SH2 domain L43F 0.954 | SHP2 N-SH2 domain T42A 0.772 | SHP2 N-SH2 domain T52S 0.864 | [2] 0.891

DWRQEYVLNEP [TGM1_Y267_S272P]
inactive: SHP2 C-SH2 domain E139D 0.793 | [1] 0.827 | SHP2 N-SH2 domain L43F 0.823 | SHP2 N-SH2 domain T42A 0.683 | SHP2 N-SH2 domain T52S 0.732 | [2] 0.794

TDDMRYPMKSE [TGDS_Y302_N298D]
inactive: SHP2 C-SH2 domain E139D 0.528 | [1] 0.44 | SHP2 N-SH2 domain L43F 0.539 | SHP2 N-SH2 domain T42A 0.602 | SHP2 N-SH2 domain T52S 0.528 | [2] 0.578

LQRCKYSHMEP [TEX45_Y434]
inactive: SHP2 C-SH2 domain E139D 1.56 | [1] 1.37 | SHP2 N-SH2 domain L43F 1.27 | SHP2 N-SH2 domain T42A 1.16 | SHP2 N-SH2 domain T52S 0.959 | [2] 0.875

RRGMPYGGRGD [TGM1_Y312]
inactive: SHP2 C-SH2 domain E139D 0.19 | [1] 0.359 | SHP2 N-SH2 domain L43F 0.292 | SHP2 N-SH2 domain T42A 0.318 | SHP2 N-SH2 domain T52S 0.263 | [2] 0.277

HLQQSYLPRGT [TEX45_Y396]
inactive: SHP2 C-SH2 domain E139D 1.05 | [1] 0.784 | SHP2 N-SH2 domain L43F 0.727 | SHP2 N-SH2 domain T42A 0.851 | SHP2 N-SH2 domain T52S 1.17 | [2] 0.77

NREGVYTVSAP [TGFBI_Y537_F540S]
inactive: SHP2 C-SH2 domain E139D 0.623 | [1] 0.596 | SHP2 N-SH2 domain L43F 0.652 | SHP2 N-SH2 domain T42A 0.601 | SHP2 N-SH2 domain T52S 0.766 | [2] 0.678

REVKAYGAGLL [TH_Y419_G414R]
inactive: SHP2 C-SH2 domain E139D 0.638 | [1] 0.681 | SHP2 N-SH2 domain L43F 0.645 | SHP2 N-SH2 domain T42A 0.662 | SHP2 N-SH2 domain T52S 0.63 | [2] 0.718

YPRTGYSVPYG [TGM1_Y370_L366P]
inactive: SHP2 C-SH2 domain E139D 0.928 | [1] 0.867 | SHP2 N-SH2 domain L43F 1.03 | SHP2 N-SH2 domain T42A 0.883 | SHP2 N-SH2 domain T52S 0.915 | [2] 1.06

HDRNTYEKFLG [TF_Y666_YF]
inactive: SHP2 C-SH2 domain E139D 0.769 | [1] 0.883 | SHP2 N-SH2 domain L43F 0.747 | SHP2 N-SH2 domain T42A 0.79 | SHP2 N-SH2 domain T52S 0.596 | [2] 0.845

EILLSYPRTGF [TGM1_Y365_L366P_YF]
inactive: SHP2 C-SH2 domain E139D 1.18 | [1] 0.972 | SHP2 N-SH2 domain L43F 1.08 | SHP2 N-SH2 domain T42A 1.05 | SHP2 N-SH2 domain T52S 1.07 | [2] 0.984

YLRTGYSIPYG [TGM1_Y370_V372I]
inactive: SHP2 C-SH2 domain E139D 1.17 | [1] 1.7 | SHP2 N-SH2 domain L43F 1.32 | SHP2 N-SH2 domain T42A 2.66 | SHP2 N-SH2 domain T52S 1.42 | [2] 1.25

NTYEKYLEEEY [TF_Y669_G671E]
inactive: SHP2 C-SH2 domain E139D 0.671 | [1] 0.804 | SHP2 N-SH2 domain L43F 0.797 | SHP2 N-SH2 domain T42A 0.702 | SHP2 N-SH2 domain T52S 0.728 | [2] 0.82

GNLQENLTRHV [TGFBR2_Y336_Y336N]
inactive: SHP2 C-SH2 domain E139D 0.773 | [1] 0.649 | SHP2 N-SH2 domain L43F 0.665 | SHP2 N-SH2 domain T42A 0.684 | SHP2 N-SH2 domain T52S 0.621 | [2] 0.826

PEVSGYCHYAD [TG_Y234_C237Y]
inactive: SHP2 C-SH2 domain E139D 0.663 | [1] 0.863 | SHP2 N-SH2 domain L43F 0.815 | SHP2 N-SH2 domain T42A 0.79 | SHP2 N-SH2 domain T52S 0.75 | [2] 0.864

VNYQPYRKHKY [TEX37_Y28_D24N]
inactive: SHP2 C-SH2 domain E139D 0.197 | [1] 0.22 | SHP2 N-SH2 domain L43F 0.426 | SHP2 N-SH2 domain T42A 0.341 | SHP2 N-SH2 domain T52S 0.173 | [2] 0.353

VNFQPYRKHKF [TEX37_Y28_D24N_YF]
inactive: SHP2 C-SH2 domain E139D 0.29 | [1] 0.288 | SHP2 N-SH2 domain L43F 0.388 | SHP2 N-SH2 domain T42A 0.4 | SHP2 N-SH2 domain T52S 0.34 | [2] 0.363

YLEEEYVKAVG [TF_Y674_G671E]
inactive: SHP2 C-SH2 domain E139D 0.689 | [1] 0.778 | SHP2 N-SH2 domain L43F 0.831 | SHP2 N-SH2 domain T42A 0.988 | SHP2 N-SH2 domain T52S 0.768 | [2] 1.12

FSDQVYRQRRK [TH_Y230]
inactive: SHP2 C-SH2 domain E139D 0.226 | [1] 0.278 | SHP2 N-SH2 domain L43F 0.233 | SHP2 N-SH2 domain T42A 0.267 | SHP2 N-SH2 domain T52S 0.215 | [2] 0.211
